# Measurements published in the supplement of paper PMC3334620.
# The full ranking holds about 33,000 sequences; the median of “E-score (-0.5 to 0.5)” is about -0.035, and the highest 2% start at about 0.35. This is one part of the list.
# Target: T1, Pdr3 (UniProt P33200)
# T1 sequence: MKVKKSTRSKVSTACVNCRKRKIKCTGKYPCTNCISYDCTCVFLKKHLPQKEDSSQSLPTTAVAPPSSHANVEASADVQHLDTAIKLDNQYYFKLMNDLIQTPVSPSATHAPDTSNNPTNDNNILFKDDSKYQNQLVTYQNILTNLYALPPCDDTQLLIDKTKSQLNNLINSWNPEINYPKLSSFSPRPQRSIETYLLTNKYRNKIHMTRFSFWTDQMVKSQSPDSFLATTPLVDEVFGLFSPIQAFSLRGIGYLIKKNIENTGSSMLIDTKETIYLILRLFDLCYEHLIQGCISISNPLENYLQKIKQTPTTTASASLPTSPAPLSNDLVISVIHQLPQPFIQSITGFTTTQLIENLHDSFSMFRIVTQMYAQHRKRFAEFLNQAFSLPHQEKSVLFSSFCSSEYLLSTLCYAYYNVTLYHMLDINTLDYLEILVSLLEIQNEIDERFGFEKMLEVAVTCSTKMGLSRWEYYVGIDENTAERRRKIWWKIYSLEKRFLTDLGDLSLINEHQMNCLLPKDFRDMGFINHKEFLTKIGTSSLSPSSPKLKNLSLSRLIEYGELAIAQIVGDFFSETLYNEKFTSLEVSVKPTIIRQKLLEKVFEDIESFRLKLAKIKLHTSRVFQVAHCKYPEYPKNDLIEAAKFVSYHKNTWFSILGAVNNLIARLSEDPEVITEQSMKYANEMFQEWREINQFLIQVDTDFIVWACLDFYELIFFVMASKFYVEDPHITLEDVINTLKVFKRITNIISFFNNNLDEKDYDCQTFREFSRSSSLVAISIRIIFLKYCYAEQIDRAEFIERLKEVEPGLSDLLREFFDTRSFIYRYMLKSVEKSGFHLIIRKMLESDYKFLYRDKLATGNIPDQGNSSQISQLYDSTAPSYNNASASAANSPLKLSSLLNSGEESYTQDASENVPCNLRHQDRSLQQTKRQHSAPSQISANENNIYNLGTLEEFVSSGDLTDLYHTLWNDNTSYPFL
# Experiment: PBM E-score (8-mer binding enrichment) (E-score (-0.5 to 0.5)); higher = stronger / more preferred TF binding; most listed sequences are background and not binding sites
# Settings: protein concentration: 200 nM; construct: GST-full length
# Procedure: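 Universal 'all 10-mer' protein binding microarrays (Agilent AMADID 015681) probed with GST-tagged S. cerevisiae TFs (full-length or DBD) made by in vitro transcription/translation (PURExpress), about 100-200 nM. Bound TF was detected with fluorescent anti-GST. Each ungapped 8-mer (which stands for itself and its reverse complement) is scored by the PBM enrichment score (E-score), a modified Wilcoxon-Mann-Whitney statistic from -0.5 to +0.5, computed with the Universal PBM Analysis Suite. Scale: above 0.35 generally sequence-specific binding.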
row,Sequence,PBM E-score
1,ATTCTGGA,-0.00551
2,CGAGGAAC,0.313
3,AGAAATGC,-0.0246
4,ACTATTAA,0.0378
5,AAGCAGCA,-0.123
6,ATTAGTCA,0.0506
7,AATATCGG,0.255
8,GTTGCCAA,-0.00919
9,CGGTCTGA,0.183
10,AATCGCAG,0.042
11,CGTGTACC,-0.0225
12,CACATACG,-0.233
13,CAGTTGGC,-0.0838
14,ACGCGATA,-0.0735
15,GGCCATTA,0.0961
16,ATTGGATG,-0.107
17,AGGTCTTC,-0.195
18,GATCTTTA,-0.0241
19,GACCACCA,0.0532
20,AATGGAGT,-0.0147
21,ACCTAGCT,-0.198
22,AAAATCAT,-0.0443
23,ATGTCCTG,0.0925
24,TCAGACAA,-0.0268
25,CAGATAAA,0.0639

row,Sequence,PBM E-score
1,GGGCGATA,0.0717
2,GTGCCCCA,-0.177
3,AATTTCTA,-0.0112
4,AAACCCGG,0.401
5,GGGTGACC,0.109
6,CCTGGGAG,-0.0198
7,AAGGGCTA,-0.173
8,CGAGGATC,0.115
9,CGAACAGA,0.137
10,ACCGACAT,0.0268
11,GTCGCGAA,0.0709
12,ACCAAACC,-0.0215
13,TATCCGAA,0.307
14,GAGAGCCA,-0.0735
15,CCGGGTTC,0.411
16,CCAGGCTC,-0.111
17,GCCAGGTA,-0.0481
18,AAGATCAC,-0.0576
19,AACGTTAC,-0.183
20,AACTATAC,0.00568
21,GCGATGCA,-0.0787
22,GAAGATCA,-0.0699
23,AGTTCATC,0.0424
24,AAGGATGT,-0.0876
25,GGCGGGTA,0.164

row,Sequence,PBM E-score
1,CACCGTTA,-0.0208
2,AGGCTAAA,-0.297
3,CCGGCAAG,0.241
4,GTCTATGA,-0.0893
5,AAATATTG,0.11
6,AAGGATCC,0.12
7,AATGATTA,-0.0149
8,GGCGACAC,0.0465
9,CGTCTCGA,0.0701
10,GACATTCC,0.118
11,AGGCGCTA,-0.0664
12,CCGCCCAC,0.295
13,CACTCATG,-0.257
14,ACGCACAG,0.0118
15,CTTGCACC,0.114
16,CAAAACAA,-0.224
17,ACGATGCC,-0.133
18,ATCAACAA,0.0138
19,CTAAAGCC,-0.397
20,ATAAGTTG,0.0184
21,ACGACGTA,-0.153
22,ATACGGTG,-0.0863
23,AACTACCT,0.0545
24,CCGGTAAC,0.183
25,GCGCAACA,0.0707

row,Sequence,PBM E-score
1,ATGAAATG,0.0155
2,GGCTGAAC,0.149
3,GCGTCTTA,-0.253
4,CCGACACC,0.00717
5,AGGAAGTG,-0.0864
6,GTACGTGA,-0.0968
7,GAGAGGCC,0.00827
8,AATTGTGT,-0.103
9,GGTTGATA,0.13
10,CGCGCTTA,0.138
11,CATTTACA,-0.147
12,CTAGTTTA,-0.243
13,AGGACGAG,-0.297
14,ACTCATAT,-0.105
15,AAAGTGGA,-0.237
16,CGTGTTAG,0.0767
17,GCATGTTA,0.066
18,GAAAGGTC,0.075
19,ACTTGACG,-0.135
20,ACCCTCTG,-0.182
21,CTTTGCGA,0.0333
22,AAGGCCTA,-0.231
23,AACTCAAT,-0.102
24,AACAATGG,0.0142
25,GCGAATAC,-0.00616

row,Sequence,PBM E-score
1,CGGTACCC,-0.0572
2,AACTGGCA,-0.0302
3,CCGCATGC,0.12
4,CCCAGCAG,0.0135
5,ATCTCTAG,-0.107
6,ATACTTTA,-0.121
7,CCGTCCCC,0.166
8,CTGCATAC,0.159
9,TAGACAAA,-0.168
10,AATGTTCG,0.0441
11,CCAGGCCA,-0.145
12,GCCATTTA,-0.0648
13,CAGCATCA,-0.134
14,TATTTTGA,-0.245
15,CAAAGGCA,-0.0181
16,TCGTCCAA,-0.0781
17,ATGGGAAT,-0.0684
18,GCATGCCA,0.0312
19,CTGTTCAA,-0.104
20,CACGCTTC,-0.136
21,CCCATTTC,0.0232
22,GTGCGCTA,-0.128
23,AAATAGCT,-0.0782
24,AAACGACT,-0.173
25,CTATCATA,0.0212

row,Sequence,PBM E-score
1,ACTATACT,0.0302
2,TTCCCCAA,-0.0249
3,CAAGTTAA,-0.157
4,ACGTTCGA,-0.24
5,AAAATGTA,-0.031
6,ATGACCAG,-0.131
7,AGATGAAC,0.0454
8,CTTGATTA,-0.0948
9,CTATATCA,-0.0438
10,GGTGGACA,0.131
11,AAATTCGG,0.186
12,ATAGAGTG,-0.0235
13,GCTAGAGA,-0.243
14,AAAATAGG,0.103
15,CCGGCGCC,0.37
16,GAGATGAA,0.0286
17,GAAAGACC,-0.0704
18,CGACTCTC,-0.0502
19,ACGGTTCG,0.0444
20,CTGTGTAA,-0.154
21,TAGGGAAA,-0.15
22,AATCATAT,0.0312
23,CAGGATAC,-0.0972
24,CTTTCATA,-0.00415
25,AAGCCTCC,-0.148

row,Sequence,PBM E-score
1,GTGACAAC,0.0198
2,CCCAGGGG,-0.115
3,ACAAGACT,-0.206
4,GGTAGCCA,-0.0883
5,AGAGCAGG,-0.0462
6,TATCGAGA,-0.0727
7,CCCGCTCC,0.059
8,CAGGCACG,0.106
9,AGATTGGC,-0.0973
10,AAGGCCGC,0.067
11,GGTTGCGA,0.0755
12,CGGGGTTA,0.304
13,AAGTTGCG,-0.0655
14,AATGTTGC,-0.107
15,ATAGCAAT,-0.0251
16,ATGCTAAT,-0.058
17,CATTAAAA,0.0238
18,CGTGATGA,-0.199
19,GAGCTTAC,-0.111
20,GGAGGCCC,-0.098
21,CGCCGGGC,0.308
22,AAGTCGCT,-0.211
